{"source": "PubChem BioAssay AID1460", "about": "(National Center for Advancing Translational Sciences (NCATS), 2008)", "note": "“And” between values parts separate entries of the source, which are not always exact repeats. Identical values can stand only once. Out of some 270,000 compounds screened, about 5,800 (2.1%) were called active. Inconclusive results, whose numbers are uncertain, are shown with a selection of clear calls. Calls follow the shape of the dose curve; as a rule, active = well fitted inhibition curve with a large enough effect; inconclusive = small, poorly fitted or top-dose-only effect; inactive = flat fitted curve, though single readings scatter. Potencies of inconclusive entries are doubtful fits and often do not repeat. Potency is read from the fitted curve at half-maximal effect; tags tell the direction and shape of the fitted curve.", "data": [{"biological_target": "Microtubule-associated protein tau (Homo sapiens) (UniProt P10636)", "sequence (P10636 whole entry, looked up)": "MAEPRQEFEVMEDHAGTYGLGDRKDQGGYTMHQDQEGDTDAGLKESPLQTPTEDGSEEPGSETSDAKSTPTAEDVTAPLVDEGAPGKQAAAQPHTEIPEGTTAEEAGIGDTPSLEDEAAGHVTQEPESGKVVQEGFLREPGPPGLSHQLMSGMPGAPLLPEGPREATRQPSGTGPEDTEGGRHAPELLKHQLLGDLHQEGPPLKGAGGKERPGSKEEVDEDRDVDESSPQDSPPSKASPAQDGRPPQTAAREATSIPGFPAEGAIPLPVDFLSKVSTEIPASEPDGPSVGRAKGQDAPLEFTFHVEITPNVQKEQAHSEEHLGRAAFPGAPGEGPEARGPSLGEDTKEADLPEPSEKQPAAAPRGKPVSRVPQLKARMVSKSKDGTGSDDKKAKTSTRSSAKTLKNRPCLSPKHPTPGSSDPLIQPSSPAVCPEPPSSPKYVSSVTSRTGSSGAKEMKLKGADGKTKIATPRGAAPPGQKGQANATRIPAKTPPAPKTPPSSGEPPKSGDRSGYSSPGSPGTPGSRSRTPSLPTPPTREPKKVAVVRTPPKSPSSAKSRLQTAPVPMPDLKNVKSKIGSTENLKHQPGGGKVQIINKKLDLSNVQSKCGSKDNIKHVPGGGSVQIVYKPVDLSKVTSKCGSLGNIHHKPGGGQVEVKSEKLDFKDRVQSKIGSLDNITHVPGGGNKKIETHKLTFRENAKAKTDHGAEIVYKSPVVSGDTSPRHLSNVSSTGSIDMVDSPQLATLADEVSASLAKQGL", "test": "qHTS for Inhibitors of Tau Fibril Formation, Thioflavin T Binding; also: nearly all actives have a fitted effect of over 55% in size", "conditions": "recombinant tau K18 P301L, heparin-induced fibrillization, ThT fluorescence; series mostly up to 57.4 µM", "outline": "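Using a mix of unlabeled (15 uM) and Alexa 594-labeled (0.24 uM) tau K18 P301L, heparin-triggered fibrillization over 6 hr at 37 C was scored by ThT fluorescence.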", "values": [{"smiles": "C=CCn1c(N)c(C(=O)Nc2ccccc2)c2nc3ccccc3nc21", "Potency": "inconclusive: 17.8 µM [inhibitor, partial curve]"}, {"smiles": "CN(C)c1ccc(-c2nc(Nc3ccncc3)c3ccccc3n2)cc1", "Potency": "active: 7.08 µM"}, {"smiles": "CC(C)(C)c1ccc(C(=O)N2CCC(=O)N(C(COCc3ccccc3)Cc3ccccc3)CC2)cc1", "note": "(centres undefined)", "Potency": "inconclusive: 31.6 µM [inhibitor, single point]"}, {"smiles": "Cc1ccc(SCCC(=O)N/N=C/c2ccccc2O)cc1", "Potency": "inactive"}, {"smiles": "CCCCC(=O)N1CCN(c2nc3c(C)c(C)ccc3s2)CC1", "Potency": "inconclusive: 11.2 µM [inhibitor, partial curve]"}, {"smiles": "O=C(O)c1cc(/C=C/c2ccc(N3CCOCC3)cc2)nc2ccccc12", "Potency": "inconclusive: 12.6 µM [inhibitor, partial curve]"}, {"smiles": "N=c1c(-c2nc3ccccc3[nH]2)cc(C(=O)c2ccco2)nn1-c1ccccc1", "Potency": "active: 15.8 µM"}, {"smiles": "CCCCNc1cc(N2CCN(C3CCCCC3)CC2)c2noc3c2c1C(=O)c1ccccc1-3", "Potency": "active: 15.8 µM"}, {"smiles": "Cc1ccccc1C(CC(=O)c1cccs1)C(C#N)C#N", "note": "(centres undefined)", "Potency": "active: 25.1 µM"}, {"smiles": "Cc1cc(C)c(NC(=O)CN2C(=O)CCn3nc(-c4cccn4C)cc32)c(C)c1", "Potency": "inactive"}, {"smiles": "O=C(N/N=C/c1sc(=O)[nH]c1-[n+]1ccccc1)c1ccccc1[O-]", "Potency": "inconclusive: 7.94 µM [inhibitor, full curve, poor fit]"}, {"smiles": "CCCCN(CC)S(=O)(=O)c1ccc(C(=O)Nc2nnc(-c3cccs3)o2)cc1", "Potency": "inconclusive: 12.6 µM [inhibitor, partial curve]"}, {"smiles": "Cc1ccccc1CN1c2ccccc2-c2nc(SCC(=O)Nc3cc(F)ccc3F)ncc2S1(=O)=O", "Potency": "inactive"}, {"smiles": "Cc1c(C(=O)O)c(C(=O)O)nc2ccc(N3CCOCC3)cc12", "Potency": "inactive"}, {"smiles": "Cn1c(SCC(=O)NC(C)(C)C)nc(O)cc1=O", "Potency": "inconclusive: 25.1 µM [inhibitor, single point]"}, {"smiles": "CC(C)(C)NC(=O)COC(=O)c1ccc(NC(=O)CC#N)cc1", "Potency": "inactive"}, {"smiles": "COc1ccc(-c2c(C)nn3c(-c4ccccc4)cc(-c4ccccc4)nc23)cc1", "Potency": "inactive"}, {"smiles": "CCOC(=O)c1c(C)n(-c2ccc(C)cc2)c2ccc(OCC(O)CN3CCN(C)CC3)cc12", "note": "(centres undefined)", "Potency": "inconclusive: 35.5 µM [inhibitor, partial curve]"}, {"smiles": "O=C(NCc1ccccc1)c1cc(-c2ccncc2)nc2ccc(S(=O)(=O)N3CCOCC3)cc12", "Potency": "inactive"}, {"smiles": "CCc1ccccc1NC(=O)c1ncoc1-c1ccco1", "Potency": "inactive"}, {"smiles": "CCCn1cc(SCC(=O)Nc2ccc3c(c2)OCO3)c2ccccc21", "Potency": "inconclusive: 20 µM [inhibitor, partial curve]"}, {"smiles": "CCc1ccc2c(c1)c(=O)c(C(=O)c1ccccc1)cn2CC(=O)Nc1ccc(C)c(Cl)c1", "Potency": "inconclusive: 11.2 µM [activator, partial curve]"}, {"smiles": "Cc1cc(Br)ccc1-n1[nH]c(C)c(C=Nc2cccc3nsnc23)c1=O", "Potency": "active: 14.1 µM"}, {"smiles": "Cc1ccc(-c2nnc(-c3ccc4c(c3)OCO4)o2)cc1", "Potency": "inconclusive: 2.51 µM [inhibitor, full curve]"}, {"smiles": "COc1cccc(C(=O)/C=C/c2ccc(OCC#N)c(OC)c2)c1", "Potency": "inactive"}, {"smiles": "COCCN1CCn2c(nc3cc(NC(=O)NC4CCCCC4)ccc32)C1", "Potency": "inconclusive: 17.8 µM [inhibitor, partial curve]"}, {"smiles": "CN1CCC(N(C)CC(=O)Nc2ccc3c(c2)OC(F)(F)O3)CC1", "Potency": "inactive"}, {"smiles": "COc1ccc2nc3cc(Cl)ccc3c(Nc3cc(C(C)C)c(O)cc3C)c2c1", "Potency": "active: 5.01 µM"}, {"smiles": "Cc1ccc(C2=NNC(c3cccc(F)c3)S2)cc1", "note": "(centres undefined)", "Potency": "inconclusive: 2.51 µM [inhibitor, full curve]"}, {"smiles": "O=[N+]([O-])c1cc(-c2nc(-c3ccncc3)no2)ccc1Cl", "Potency": "inconclusive: 2.82 µM [inhibitor, full curve]"}, {"smiles": "COCCCNC(=O)C1CCN(C(=O)c2cc3sccc3n2Cc2ccc(Cl)cc2)CC1", "Potency": "inconclusive: 1.58 µM [inhibitor, full curve, poor fit]"}, {"smiles": "CC1=C(C(=O)Nc2ccccc2)C(c2ccco2)C(C#N)=C(SCC(=O)OC(C)C)N1", "note": "(centres undefined)", "Potency": "inconclusive: 28.2 µM [inhibitor, single point]"}, {"smiles": "COc1ccc(C(=O)Nc2ccc3nc(N4CCCCC4)cc(C)c3c2)cc1OC", "Potency": "inconclusive: 1.78 µM [inhibitor, full curve] and inconclusive: 2.24 µM [inhibitor, full curve]"}, {"smiles": "COc1ccc(CCNC(=O)c2ccc(CSCc3ccc(C)cc3)o2)cc1OC", "Potency": "inconclusive: 17.8 µM [inhibitor, partial curve, poor fit]"}, {"smiles": "Cc1occc1C(=O)N/N=C/C1=C(N2CCOCC2)C(=C\\c2ccc(Cl)cc2Cl)/CC1", "Potency": "inconclusive: 3.16 µM [inhibitor, full curve, poor fit]"}, {"smiles": "CC1CCCN(C(=O)c2ccc3c(c2NCCO)C(=O)c2ccccc2C3=O)C1", "note": "(centres undefined)", "Potency": "inconclusive: 12.6 µM [inhibitor, partial curve]"}, {"smiles": "Cc1ccc(C(=O)Nc2nnc(S(=O)(=O)N3CCCc4ccccc43)s2)cc1", "Potency": "inconclusive: 7.94 µM [inhibitor, partial curve]"}, {"smiles": "COc1ccc2nc3c(cc2c1)Cc1ccccc1-3", "Potency": "inconclusive: 2.51 µM [inhibitor, partial curve]"}, {"smiles": "COc1ccc(OC)c(S(=O)(=O)N(C)CC(=O)Nc2ccc3c(c2)OCO3)c1", "Potency": "inconclusive: 35.5 µM [inhibitor, single point]"}, {"smiles": "Fc1ccc(Nc2c(-c3c[nH]c4ccccc34)nc3ccccn23)cc1", "Potency": "inactive"}, {"smiles": "CCOc1ccc(Cc2c(Cl)nc(SC)nc2N(C)C)cc1", "Potency": "inconclusive: 25.1 µM [inhibitor, partial curve]"}, {"smiles": "O=C(Cc1cccs1)Nc1ccc(N2CCOCC2)cc1", "Potency": "inconclusive: 8.91 µM [inhibitor, full curve, poor fit]"}, {"smiles": "Cc1cc(C)c2nc(C(F)(F)F)nc(N3CCN(C(=O)c4ccco4)CC3)c2c1", "Potency": "inactive"}, {"smiles": "CC1=C/C(=N\\OS(=O)(=O)c2ccccc2)C=CC1=O", "Potency": "active: 3.16 µM"}, {"smiles": "CC(C)Nc1ccc(C(CC(N)=O)NC(=O)Cc2ccc(Br)cc2)cc1[N+](=O)[O-]", "note": "(centres undefined)", "Potency": "inconclusive: 12.6 µM [inhibitor, partial curve]"}, {"smiles": "N#Cc1c(NC(=O)CSc2nc3ccccc3s2)sc2c1CCCC2", "Potency": "inactive"}, {"smiles": "O=C1N/C(=N/O)S/C1=C/c1cccc([N+](=O)[O-])c1", "Potency": "inconclusive: 15.8 µM [inhibitor, partial curve]"}, {"smiles": "CCOc1ccc(NC(=O)c2ncn(-c3ccccc3)n2)cc1", "Potency": "inconclusive: 1.26 µM [inhibitor, full curve, poor fit]"}, {"smiles": "Cc1ccc(-c2nnn3c2nc(N2CCC(C)CC2)c2ccccc23)cc1", "Potency": "inactive"}, {"smiles": "O=C(CSc1ncc2c(n1)-c1cc(Cl)ccc1N(Cc1ccccc1)S2(=O)=O)NCc1ccccc1", "Potency": "inactive"}, {"smiles": "CCOCCCNC(=O)c1ccc2c(c1)ncn2C1CCCC1", "Potency": "inactive"}, {"smiles": "Cc1ccc(OCCSc2nc3ccccc3n2CC(=O)NC(C)C)cc1", "Potency": "inconclusive: 28.2 µM [inhibitor, single point]"}, {"smiles": "CCc1ccc(C(=O)c2cn(CC(=O)Nc3ccc(OC)cc3)c3cc4c(cc3c2=O)OCCO4)cc1", "Potency": "inconclusive: 10 µM [activator, partial curve]"}, {"smiles": "O=C(N/N=C/c1ccc([N+](=O)[O-])o1)c1cn2ccc3ccccc3c2n1", "Potency": "inconclusive: 1.41 µM [inhibitor, full curve]"}, {"smiles": "CCc1nc(N[C@H](C(=O)O)C(C)C)c2oc3ccccc3c2n1", "Potency": "inactive"}, {"smiles": "CCCCCC(=O)/C=C/[C@H]1[C@H](O)CC(=O)[C@@H]1C/C=C\\CCCC(=O)O", "Potency": "inactive"}, {"smiles": "COc1ccc(C(=O)O/N=C(\\N)c2ccccc2)c(OC)c1", "Potency": "inconclusive: 7.94 µM [inhibitor, full curve]"}, {"smiles": "Cc1cccc(S(=O)(=O)C(C#N)c2nc3ccccc3nc2N2CCOCC2)c1", "note": "(centres undefined)", "Potency": "inconclusive: 31.6 µM [inhibitor, single point]"}, {"smiles": "CCOc1ccc2nc(NC(=O)Nc3cccs3)sc2c1", "Potency": "inconclusive: 3.98 µM [inhibitor, full curve]"}, {"smiles": "Cc1[nH]c2ccccc2c1/C=N/NC(=S)NCc1ccccc1", "Potency": "inconclusive: 20 µM [inhibitor, partial curve]"}, {"smiles": "COc1cc(NC(=O)c2cc3cc4ccc(OC)c(Cl)c4nc3s2)cc(OC)c1", "Potency": "inconclusive: 1.26 µM [inhibitor, full curve]"}, {"smiles": "Cc1ccc(Cn2nnc3c(=O)[nH]c(C4CCCN(S(=O)(=O)c5ccccc5)C4)nc32)cc1", "note": "(centres undefined)", "Potency": "inconclusive: 0.0562 µM [inhibitor, full curve, poor fit]"}, {"smiles": "N#CC1=C(N)OC2=C(CC/C2=C\\c2ccccc2Cl)C1c1ccccc1Cl", "note": "(centres undefined)", "Potency": "inconclusive: 11.2 µM [inhibitor, partial curve]"}, {"smiles": "O=C(CN(c1ccccc1)S(=O)(=O)c1ccccc1)N/N=C/c1ccco1", "Potency": "inactive"}, {"smiles": "CCOC(=O)Nc1nc(-c2ccc(Cl)cc2Cl)cs1", "Potency": "inconclusive: 7.08 µM [inhibitor, partial curve]"}, {"smiles": "O=C(N/N=C/c1cccs1)c1ccc(-n2cccc2)cc1", "Potency": "inconclusive: 0.126 µM [inhibitor, full curve]"}, {"smiles": "COC(=O)c1c(NC(C)=O)sc(C)c1C", "Potency": "inactive"}, {"smiles": "Cc1nc2c(C(=O)NCCc3ccccc3)c[nH]n2c(=O)c1Cc1ccccc1F", "Potency": "inconclusive: 10 µM [inhibitor, partial curve]"}, {"smiles": "O=C(N/C(=C\\c1ccc(-c2ccccc2)o1)C(=O)N1CCOCC1)c1ccccc1", "Potency": "inconclusive: 35.5 µM [inhibitor, partial curve, poor fit]"}]}]}
